# Measured values as given in the supplement of paper PMC8728848.
# This is one part of the list.
# B1: Cohesin-hDECTIN-1 (Homo sapiens) (protein)
# chain: LDITSHHHHHHDDLDAVRIKVDTVNAKPGDTVRIPVRFSGIPSKGIANCDFVYSYDPNVLEIIEIEPGDIIVDPNPDKSFDTAVYPDRKIIVFLFAEDSGTGAYAITKDGVFATIVAKVKEGAPNGLSVIKFVEVGGFANNDLVEQKTQFFDGGVNVGDTTEPATPTTPVTTPTTTDDLDAASSSPCPPNWIIYEKSCYLFSMSLNSWDGSKRQCWQLGSNLLKIDSSNELGFIVKQVSSQPDNSFWIGLSRPQTEVPWLWEDGSTFSSNLFQIRTTATQENPSPNCVWIHVSVIYDQLCSVPSYSICEKKFM
# How the values were obtained:
# Experiment in all cases: glycan array binding signal (z-score within array); higher = stronger binding
# Conditions in all cases: glycan notation: IUPAC condensed, linker removed
# [1] = biological target: Gal(b1-3)GalNAc(b1-3)Gal(a1-4)Gal(b1-4)Glc
# Method in brief: (§1)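 From the Consortium for Functional Glycomics database, 3228 arrays were curated, keeping only those whose protein sequence was available. Binding is given as a within-array Z-score averaged across arrays sharing a protein sequence and across linkers. Negative Z-scores can be read as non-binding.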
# [2] = biological target: Gal(b1-3)GalNAc(b1-4)Gal(b1-4)Glc
# Method in brief: as §1
# [3] = biological target: Gal(b1-3)GalNAc(b1-4)[Neu5Ac(a2-3)]Gal(b1-4)Glc
# Method in brief: as §1
# Gal(b1-3)GlcNAc = biological target: Gal(b1-3)GlcNAc
# Method in brief: as §1
# [4] = biological target: Gal(b1-3)GlcNAc(a1-3)Gal(b1-4)GlcNAc
# Method in brief: as §1
# [5] = biological target: Gal(b1-3)GlcNAc(a1-6)Gal(b1-4)GlcNAc
# Method in brief: as §1
# Gal(b1-3)GlcNAc(b1-2)Man = biological target: Gal(b1-3)GlcNAc(b1-2)Man
# Method in brief: as §1
# [6] = biological target: Gal(b1-3)GlcNAc(b1-2)Man(a1-3)[Gal(b1-3)GlcNAc(b1-2)Man(a1-6)]Man(b1-4)GlcNAc(b1-4)GlcNAc
# Method in brief: as §1
# [7] = biological target: Gal(b1-3)GlcNAc(b1-2)Man(a1-3)[Gal(b1-3)GlcNAc(b1-2)Man(a1-6)]Man(b1-4)GlcNAc(b1-4)[Fuc(a1-6)]GlcNAc
# Method in brief: as §1
# [8] = biological target: Gal(b1-3)GlcNAc(b1-2)Man(a1-3)[GlcNAc(b1-4)][Gal(b1-3)GlcNAc(b1-2)Man(a1-6)]Man(b1-4)GlcNAc(b1-4)GlcNAc
# Method in brief: as §1
# [9] = biological target: Gal(b1-3)GlcNAc(b1-2)[Gal(b1-3)GlcNAc(b1-6)]Man(a1-6)[Gal(b1-3)GlcNAc(b1-2)Man(a1-3)]Man(b1-4)GlcNAc(b1-4)GlcNAc
# Method in brief: as §1
# [10] = biological target: Gal(b1-3)GlcNAc(b1-3)Gal(b1-3)GlcNAc
# Method in brief: as §1
# [11] = biological target: Gal(b1-3)GlcNAc(b1-3)Gal(b1-4)Glc
# Method in brief: as §1
# [12] = biological target: Gal(b1-3)GlcNAc(b1-3)Gal(b1-4)GlcNAc
# Method in brief: as §1
# [13] = biological target: Gal(b1-3)GlcNAc(b1-3)Gal(b1-4)GlcNAc(b1-2)Man(a1-3)[Gal(b1-3)GlcNAc(b1-3)Gal(b1-4)GlcNAc(b1-2)Man(a1-6)]Man(b1-4)GlcNAc(b1-4)GlcNAc
# Method in brief: as §1
# [14] = biological target: Gal(b1-3)GlcNAc(b1-3)Gal(b1-4)GlcNAc(b1-2)[Gal(b1-3)GlcNAc(b1-3)Gal(b1-4)GlcNAc(b1-6)]Man(a1-6)[Gal(b1-3)GlcNAc(b1-3)Gal(b1-4)GlcNAc(b1-2)Man(a1-3)]Man(b1-4)GlcNAc(b1-4)[Fuc(a1-6)]GlcNAc
# Method in brief: as §1
# [15] = biological target: Gal(b1-3)GlcNAc(b1-3)Gal(b1-4)GlcNAc(b1-3)Gal(b1-4)GlcNAc(b1-2)[Gal(b1-3)GlcNAc(b1-3)Gal(b1-4)GlcNAc(b1-3)Gal(b1-4)GlcNAc(b1-6)]Man(a1-6)[Gal(b1-3)GlcNAc(b1-3)Gal(b1-4)GlcNAc(b1-3)Gal(b1-4)GlcNAc(b1-2)Man(a1-3)]Man(b1-4)GlcNAc(b1-4)[Fuc(a1-6)]GlcNAc
# Method in brief: as §1
# [16] = biological target: Gal(b1-3)GlcNAc(b1-3)Gal(b1-4)GlcNAc(b1-6)[Gal(b1-3)GlcNAc(b1-3)]Gal(b1-4)Glc
# Method in brief: as §1
# [17] = biological target: Gal(b1-3)GlcNAc(b1-3)Gal(b1-4)[Fuc(a1-3)]GlcNAc
# Method in brief: as §1
# [18] = biological target: Gal(b1-3)GlcNAc(b1-3)Gal(b1-4)[Fuc(a1-3)]GlcNAc(b1-6)[Gal(b1-3)GlcNAc(b1-3)]Gal(b1-4)Glc
# Method in brief: as §1
# [19] = biological target: Gal(b1-3)GlcNAc(b1-3)GalNAc
# Method in brief: as §1
# [20] = biological target: Gal(b1-3)GlcNAc(b1-6)Gal(b1-4)GlcNAc
# Method in brief: as §1
# [21] = biological target: Gal(b1-3)GlcNAc(b1-6)GalNAc
# Method in brief: as §1
# [22] = biological target: Gal(b1-3)GlcNAc(b1-6)[Gal(b1-3)]GalNAc
# Method in brief: as §1
# Gal(b1-3)GlcNAc6S = biological target: Gal(b1-3)GlcNAc6S
# Method in brief: as §1
# [23] = biological target: Gal(b1-3)[Fuc(a1-4)]GlcNAc
# Method in brief: as §1
# [24] = biological target: Gal(b1-3)[Fuc(a1-4)]GlcNAc(b1-2)Man
# Method in brief: as §1
# [25] = biological target: Gal(b1-3)[Fuc(a1-4)]GlcNAc(b1-2)Man(a1-3)[Gal(b1-3)[Fuc(a1-4)]GlcNAc(b1-2)Man(a1-6)]Man(b1-4)GlcNAc(b1-4)[Fuc(a1-6)]GlcNAc
# Method in brief: as §1
# [26] = biological target: Gal(b1-3)[Fuc(a1-4)]GlcNAc(b1-3)Gal(b1-3)[Fuc(a1-4)]GlcNAc
# Method in brief: as §1
# [27] = biological target: Gal(b1-3)[Fuc(a1-4)]GlcNAc(b1-3)Gal(b1-4)[Fuc(a1-3)]GlcNAc
# Method in brief: as §1
# [28] = biological target: Gal(b1-3)[Fuc(a1-4)]GlcNAc(b1-6)GalNAc
# Method in brief: as §1
# [29] = biological target: Gal(b1-3)[GlcNAc(b1-6)]GalNAc
# Method in brief: as §1
# [30] = biological target: Gal(b1-3)[Neu5Ac(a2-6)]GalNAc
# Method in brief: as §1
# [31] = biological target: Gal(b1-3)[Neu5Ac(a2-6)]GlcNAc(b1-4)Gal(b1-4)Glc
# Method in brief: as §1
# [32] = biological target: Gal(b1-3)[Neu5Ac(b2-6)]GalNAc
# Method in brief: as §1
# Gal(b1-4)Gal = biological target: Gal(b1-4)Gal
# Method in brief: as §1
# [33] = biological target: Gal(b1-4)GalNAc(a1-3)[Fuc(a1-2)]Gal(b1-4)GlcNAc
# Method in brief: as §1
# [34] = biological target: Gal(b1-4)GalNAc(b1-3)[Fuc(a1-2)]Gal(b1-4)GlcNAc
# Method in brief: as §1
binder,measurement,setting,value
B1,glycan array binding signal (z-score),[1],0.075
same,glycan array binding signal (z-score),[2],-0.439
same,glycan array binding signal (z-score),[3],-0.371
same,glycan array binding signal (z-score),Gal(b1-3)GlcNAc,-0.169
same,glycan array binding signal (z-score),[4],-0.517
same,glycan array binding signal (z-score),[5],0.072
same,glycan array binding signal (z-score),Gal(b1-3)GlcNAc(b1-2)Man,-0.46
same,glycan array binding signal (z-score),[6],-0.51
same,glycan array binding signal (z-score),[7],-0.176
same,glycan array binding signal (z-score),[8],-0.248
same,glycan array binding signal (z-score),[9],-0.531
same,glycan array binding signal (z-score),[10],-0.404
same,glycan array binding signal (z-score),[11],-0.403
same,glycan array binding signal (z-score),[12],-0.464
same,glycan array binding signal (z-score),[13],0.321
same,glycan array binding signal (z-score),[14],-0.221
same,glycan array binding signal (z-score),[15],0.097
same,glycan array binding signal (z-score),[16],-0.595
same,glycan array binding signal (z-score),[17],-0.431
same,glycan array binding signal (z-score),[18],-0.496
same,glycan array binding signal (z-score),[19],-0.392
same,glycan array binding signal (z-score),[20],-0.213
same,glycan array binding signal (z-score),[21],6.01
same,glycan array binding signal (z-score),[22],-0.299
same,glycan array binding signal (z-score),Gal(b1-3)GlcNAc6S,-0.25
same,glycan array binding signal (z-score),[23],-0.306
same,glycan array binding signal (z-score),[24],-0.339
same,glycan array binding signal (z-score),[25],0.234
same,glycan array binding signal (z-score),[26],1
same,glycan array binding signal (z-score),[27],-0.364
same,glycan array binding signal (z-score),[28],0.14
same,glycan array binding signal (z-score),[29],-0.351
same,glycan array binding signal (z-score),[30],-0.408
same,glycan array binding signal (z-score),[31],0.121
same,glycan array binding signal (z-score),[32],-0.465
same,glycan array binding signal (z-score),Gal(b1-4)Gal,-0.415
same,glycan array binding signal (z-score),[33],0.045
same,glycan array binding signal (z-score),[34],-0.067
